In the supplement of paper PMC4166925:
± gives the standard deviation of the averaged measurements. In all, about 33,000 sequences were measured (“E-score (dimensionless, -0.5 to 0.5)”: median about -0.049, highest 2% from about 0.37 on). The list shows a part of the results.

Each sequence was assayed on T1, PmTbr T-box DNA-binding domain (GST fusion) (assay: PBM E-score of 8-mer (E-score (dimensionless, -0.5 to 0.5)); Tbr is Tbrain of the sea star Patiria miniata (Pm) or the sea urchin Strongylocentrotus purpuratus (Sp); higher = stronger binding preference; most listed sequences are background and not binding sites). Details: the construct has about 5 more residues each side.
T1 sequence: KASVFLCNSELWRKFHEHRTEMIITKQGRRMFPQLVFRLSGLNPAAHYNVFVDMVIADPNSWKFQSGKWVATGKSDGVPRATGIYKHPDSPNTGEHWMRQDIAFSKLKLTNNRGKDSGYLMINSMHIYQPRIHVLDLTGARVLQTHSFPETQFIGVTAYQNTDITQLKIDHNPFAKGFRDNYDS
How it was run: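 Using the Universal PBM Analysis Suite, every ungapped 8-mer received an enrichment E-score averaged over duplicate arrays. Probe intensities came from double-stranded Universal Agilent oligonucleotide arrays incubated with 200 nM GST-fused Tbr T-box DNA-binding domain in PBS (pH 7.5). That protein was expressed in BL21 E. coli at 20 °C and purified by glutathione affinity chromatography.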

Sequence | PBM E-score of 8-mer
ATTACGGC | -0.0812 ± 0.046
GTTGGAAA | -0.035 ± 0.01
GCTCATTA | -0.106 ± 0.092
GGTATACA | 0.104 ± 0.0033
CCGGCCCG | -0.221 ± 0.015
ATAGGAAC | -0.205 ± 0.074
ATACCTTG | -0.117 ± 0.061
AAACAGAG | 0.00481 ± 0.078
AGGCATAT | -0.327 ± 0.0097
ACTGCAGG | -0.0649 ± 0.097
GGGTTCCA | -0.174 ± 0.028
GTGCTATA | 0.216 ± 0.022
CTTCAAGC | -0.125 ± 0.0076
GAGCCCTC | -0.149 ± 0.072
CAGAGTTA | 0.0303 ± 0.0041
ACGATTGA | -0.00167 ± 0.056
CCACCCGA | 0.159 ± 0.0077
CGACCGTA | -0.229 ± 0.14
CCCATGGA | -0.224 ± 0.048
CATTGAAA | -0.118 ± 0.03
AGCTGTAC | -0.0876 ± 0.022
ATTCATGG | 0.0231 ± 0.023
GCCGCTAA | 0.171 ± 0.011
CGCCAAGA | -0.0181 ± 0.0017
ATACATGA | -0.0916 ± 0.04

Sequence | PBM E-score of 8-mer
ACCTGCAA | 0.227 ± 0.043
CAATTCTA | -0.0043 ± 0.092
AAGTTCTA | -0.174 ± 0.031
CGACCTTA | -0.208 ± 0.062
AATAGGTA | -0.0644 ± 0.018
TTATTGAA | -0.164 ± 0.1
CGGTGGCA | 0.147 ± 0.031
AAAACCAT | 0.0108 ± 0.067
AGATGTGC | 0.163 ± 0.018
AGCACCAG | 0.0646 ± 0.048
GCACCACA | 0.133 ± 0.047
TAACGAGA | -0.0247 ± 0.016
CCGCCTCC | 0.112 ± 0.033
AACTTACT | -0.0624 ± 0.06
GGAATGCC | -0.137 ± 0.055
ACGCCAGG | 0.0268 ± 0.0071
CCGATGTC | -0.155 ± 0.077
CAGCTAAC | 0.106 ± 0.0085
TCATCTCA | 0.021 ± 0.0039
ATATCTTA | 0.0978 ± 0.059
ACACTGGG | -0.0889 ± 0.057
ACCTAGGA | 0.114 ± 0.021
GCCGGCAA | -0.0351 ± 0.026
CTATTGTA | -0.308 ± 0.038
AAAGGGAG | -0.101 ± 0.018

Sequence | PBM E-score of 8-mer
CGCTTGTA | -0.116 ± 0.0057
GAGTCACC | 0.0547 ± 0.0061
CACCTGTA | 0.391 ± 0.009
GGAGGCAC | -0.167 ± 0.081
ACTTACCG | -0.129 ± 0.011
ATACAAAG | -0.123 ± 0.0031
ACACAACG | 0.219 ± 0.041
ATCGGTGC | -0.0144 ± 0.081
AATCATTC | -0.0705 ± 0.015
ACTAGACC | -0.3241 ± 0.0027
AACTCGCC | 0.129 ± 0.049
CGAGGGCA | -0.019 ± 0.015
GCACACGA | -0.135 ± 0.041
ATCGCTAA | 0.184 ± 0.026
AGACCGAA | -0.308 ± 0.011
GAATAGAA | -0.0368 ± 0.083
CTGCTAAG | 0.108 ± 0.0053
GATATCGC | 0.251 ± 0.0074
ACGCATGG | -0.144 ± 0.075
ACGTACGG | -0.0629 ± 0.007
GTGGGTCA | -0.104 ± 0.09
AAGGCATA | -0.153 ± 0.027
AAGGCAGT | -0.072 ± 0.0083
AAGCCGTA | -0.239 ± 0.029
ATAAGCCC | -0.277 ± 0.0059

Sequence | PBM E-score of 8-mer
GGATACGA | 0.0693 ± 0.066
CCCCAAAA | -0.0808 ± 0.0076
ATATACGG | -0.038 ± 0.039
CATCTAGG | 0.0133 ± 0.015
CTTCGTAA | 0.0116 ± 0.018
CCTAATAA | -0.0602 ± 0.091
ATGATAAA | 0.155 ± 0.005
CCTCAGGA | -0.173 ± 0.026
ACTCTTTC | -0.00346 ± 0.013
CCTTCTGA | -0.192 ± 0.11
ATCTAGAA | -0.133 ± 0.024
AAAACCCA | -0.0352 ± 0.12
GCTCGCAA | 0.242 ± 0.015
ACTGGGTG | 0.127 ± 0.012
ACTCGATG | -0.102 ± 0.018
CAGGCCTG | -0.29 ± 0.0073
CGCAGGGA | -0.176 ± 0.04
AGTGTAGA | 0.0847 ± 0.056
TACCCCTA | -0.165 ± 0.015
CGCAAGCG | -0.0285 ± 0.014
GGTCGGAC | -0.34 ± 0.0058
ATATCAAA | -0.149 ± 0.13
TAGATCTA | -0.0688 ± 0.056
AGCCGTTC | -0.059 ± 0.063
CTGCATTC | -0.162 ± 0.0018

Sequence | PBM E-score of 8-mer
AAGTCGTC | 0.0699 ± 0.0037
CAACACAC | 0.251 ± 0.01
GACAGAGC | -0.242 ± 0.038
AAAAAGGG | -0.231 ± 0.041
AGGGAAAA | -0.317 ± 0.056
AGAGGGTC | -0.202 ± 0.011
AACTGGGA | -0.1294 ± 0.00035
GCTACCCA | -0.114 ± 0.0049
GCTGGCCA | -0.156 ± 0.054
ACAGACAA | -0.0199 ± 0.026
CCTACTTA | 0.126 ± 0.084
AGACGGGC | -0.162 ± 0.093
AAGTCTCT | 0.00628 ± 0.02
CAATGTGA | 0.234 ± 0.051
GAGCTCAC | 0.00877 ± 0.045
ATCTACAG | -0.17 ± 0.064
TATGCGGA | -0.2886 ± 0.0024
ACGGATTC | -0.0597 ± 0.066
CGCACGCA | 0.102 ± 0.035
AGCTCGGA | -0.122 ± 0.04
CAGGGACA | -0.163 ± 0.024
GTATTTCA | -0.158 ± 0.033
CACCCCAC | 0.3 ± 0.0046
AGTGTTGG | 0.3857 ± 0.0032
TAGGAAGA | -0.274 ± 0.024

Sequence | PBM E-score of 8-mer
GAGGCGCC | 0.269 ± 0.018
CGTTGTTA | 0.157 ± 0.043
CGAGTACG | -0.0151 ± 0.037
CAACTACG | -0.0958 ± 0.098
CGCTGGGA | 0.0765 ± 0.033
AAATATCG | 0.0501 ± 0.066
TCTGTAAA | -0.0431 ± 0.014
ACCAAGGT | 0.0279 ± 0.048
ACCATCCT | -0.177 ± 0.042
CTGAGGCC | -0.275 ± 0.022
TGCTAGAA | 0.18 ± 0.036
GTCTCCTA | -0.212 ± 0.035
GATCGGAA | -0.00021 ± 0.063
ATTAACTG | 0.0586 ± 0.074
GATAATGC | 0.103 ± 0.068
ACAAAGAA | -0.0823 ± 0.024
GAATAAGC | -0.118 ± 0.015
AATCAGCT | -0.201 ± 0.057
CGTGACGC | 0.232 ± 0.0054
CAAACCCC | -0.155 ± 0.069
AACAGCGT | -0.0224 ± 0.014
CGAGGCAA | -0.161 ± 0.045
CGAATAAA | 0.0158 ± 0.011
TCACTCGA | 0.0862 ± 0.055
ATCGGTAA | -0.00438 ± 0.039

Sequence | PBM E-score of 8-mer
AGGCACAG | -0.0356 ± 0.0048
AGCCTTGA | -0.126 ± 0.063
AGTTGCTA | 0.3044 ± 0.0029
CAGACACA | 0.242 ± 0.027
CACGGGCG | -0.00187 ± 0.056
CTAGGGTC | -0.0801 ± 0.0023
CCCTGCGA | 0.21 ± 0.029
CGTCGCAA | 0.156 ± 0.03
CGTCGGCA | 0.0887 ± 0.063
CGGCGTGA | 0.327 ± 0.0041
CCTACCAA | -0.0681 ± 0.08
AGGGTGCA | 0.208 ± 0.047
AACTTGAA | -0.172 ± 0.089
CTTTCTGA | -0.106 ± 0.05
AAATCACC | 0.233 ± 0.013
AATCCGCT | 0.043 ± 0.038
GCACAGGA | -0.162 ± 0.05
GTCAAAGA | 0.00277 ± 0.089
GGATATAC | -0.175 ± 0.043
TACGTAGA | -0.139 ± 0.028
ACAGCTCA | 0.237 ± 0.0098
CATTCCGC | -0.0952 ± 0.02
